Test results taken from US20230416329A1, “A PEPTIDE WITH DISULFIDE BONDS AND INHIBITORY ACTIVITY AGAINST SERINE PROTEASES, DERIVED HYBRID PEPTIDES THEREOF, AND USES THEREOF” (INSTITUTE OF MATERIA MEDICA , CHINESE ACADEMY OF MEDICAL …, priority 2020, published 2023).
Not every detail of the peptide structures is certain; ends, links or a residue may be inferred. Some entries repeat one wording, which the source may state once for all of them.

What was measured:
normal ICR mice [1] = test: In vivo hypoglycemic activity of GLP-1 analogues, subcutaneous administration, oral glucose loading; parameters: species or system mouse; conditions: for AUC (blood glucose-time curve) / Blood glucose 0 min / Blood glucose 30 min / Blood glucose 60 min / Blood glucose 120 min: subcutaneous 1 μmol/kg, mean; for AUC (blood glucose-time curve): 0-120 min; for Blood glucose 0 min: oral glucose loading 2 g/kg; for Blood glucose 30 min: 30 min after oral glucose loading; for Blood glucose 60 min: 60 min after oral glucose loading; for Blood glucose 120 min: 120 min after oral glucose loading
Protocol: FIG. 21. In vivo hypoglycemic activities of GLP-1 analogues by subcutaneous administration. Normal ICR mice were subcutaneously injected with GLP-1 and its analogues or corresponding volumes of saline (1.0 μmol/kg, n=10). After 30 min, glucose solution (2 g/kg) was administered by gavage, and blood was collected from the tail tip at 30, 60, and 120 min after glucose administration. Blood glucose was measured using glucose oxidase method, and blood glucose values and area under the blood glucose curve (AUC) were calculated at each timepoint.
The day before the experiment, all of the animals were fasted for 15-16 hours with water ad libitum. On the day of the experiment, the animals were randomly divided according to body weight (n=10). Firstly, the blood was collected from the tail tip at 0 hour, and then the animals were administered subcutaneously with GLP-1 analog (SEQ ID NOs: 194-201, 1 μmol/kg) or saline. After 30 minutes, the animals were administered by gavage with glucose solution (2 g/kg), and the blood was collected from the tail tip at 30, 60, and 120 minutes later. Blood glucose was measured using glucose oxidase method. The blood glucose and area under the blood glucose-time curve (AUC) were calculated.

normal ICR mice [2] = test: In vivo hypoglycemic activity of GLP-1 analogues, duodenal administration, oral glucose loading; parameters: species or system mouse; conditions: for AUC (blood glucose-time curve) / Blood glucose 0 min / Blood glucose 15 min / Blood glucose 30 min / Blood glucose 60 min: duodenal injection 10 μmol/kg, mean; for AUC (blood glucose-time curve): 0-60 min; for Blood glucose 15 min: 15 min after oral glucose loading
Protocol: FIG. 22. In vivo hypoglycemic activities of GLP-1 analogues by duodenal administration. Normal ICR mice were anesthetized with inhalation of ether, and the duodenum was surgically removed and injected with GLP-1 and its analogues or a corresponding volume of saline ([…], n=9-11), and finally the incision was sewed. After 15 min, glucose solution (2 g/kg) was administered by gavage, and blood was collected from the tail tips at 15, 30, and 60 min after glucose administration. Blood glucose was measured using glucose oxidase method, and blood glucose values and area under the blood glucose curve (AUC) were calculated at each timepoint.
Drug delivery technology can use enteric coating technology to achieve oral administration targeting the small intestine. In order to test the feasibility of direct small intestinal administration of GLP-1, the present invention designs duodenal administration. The experimental process is as follows: The day before the experiment, all of the animals were fasted for 15-16 hours with water ad libitum. On the day of the experiment, the animals were randomly divided according to body weight (n=9-11 or 14-15 for combined administration). Firstly, the blood was collected from the tail tip at 0 hours, and then the animals were anesthetized by inhaling ether. A small incision was made near the underside of the stomach using surgical scissors, and the duodenum was carefully removed and administered with GLP-1 analogs (SEQ ID NOs: 194-209, 10 μmol/kg) or saline. Finally, the wound was sutured. After 15 minutes, the glucose solution (2 g/kg) was administered by gavage, and the blood were collected from the tail tips at 15, 30, and 60 minutes after glucose administration. Blood glucose was measured using the glucose oxidase method. The blood glucose at each moment and area under the blood glucose-time curve (AUC) were calculated.
AUC mg×h/dL)=(BG0+BG15)×15/60+(BG15+BG30)×15/60+(BG30+BG60)×30/60. BG0, BG15, BG30, and BG60 represent blood glucose levels at 0, 15, 30, and 60 minutes after glucose loading, respectively.

Row | SMILES | hypoglycemic activity, subcutaneous injection (in words) (normal ICR mice [1]; normal ICR mice, 1 μmol/kg s.c., glucose 2 g/kg by gavage) | AUC (blood glucose-time curve) (normal ICR mice [1]) [mg·h/dL] | Blood glucose 0 min (normal ICR mice [1]) [mg/dL] | Blood glucose 30 min (normal ICR mice [1]) [mg/dL] | Blood glucose 60 min (normal ICR mice [1]) [mg/dL] | Blood glucose 120 min (normal ICR mice [1]) [mg/dL] | AUC (blood glucose-time curve) (normal ICR mice [2]) [mg·h/dL] | Blood glucose 0 min (normal ICR mice [2]) [mg/dL] | Blood glucose 15 min (normal ICR mice [2]) [mg/dL] | Blood glucose 30 min (normal ICR mice [2]) [mg/dL] | Blood glucose 60 min (normal ICR mice [2]) [mg/dL] | reduction of blood glucose at 15 minutes compared with Nor (normal ICR mice [2]; duodenal 10 μmol/kg, normal ICR mice, after oral glucose loading) [%] | hypoglycemic activity, duodenal administration (in words) (normal ICR mice [2]; normal ICR mice, 10 μmol/kg duodenal, glucose 2 g/kg by gavage)
1 | CC[C@H](C)[C@H](NC(=O)[C@H](Cc1ccccc1)NC(=O)[C@H](CCC(=O)O)NC(=O)[C@H](CCCCN)NC(=O)[C@H](C)NC(=O)[C@H](C)NC(=O)[C@H](CCC(N)=O)NC(=O)CNC(=O)[C@H](CCC(=O)O)NC(=O)[C@H](CC(C)C)NC(=O)[C@H](Cc1ccc(O)cc1)NC(=O)[C@H](CO)NC(=O)[C@H](CO)NC(=O)[C@@H](NC(=O)[C@H](CC(=O)O)NC(=O)[C@H](CO)NC(=O)[C@@H](NC(=O)[C@H](Cc1ccccc1)NC(=O)[C@@H](NC(=O)CNC(=O)[C@H](CCC(=O)O)NC(=O)[C@H](C)NC(=O)[C@H](Cc1c[nH]cn1)NC(=O)CNC(=O)CNC(=O)[C@@H](NC(=O)[C@@H]1CCCN1C(=O)[C@@H](NC(=O)CN)[C@@H](C)CC)[C@@H](C)CC)[C@@H](C)O)[C@@H](C)O)C(C)C)C(=O)N[C@@H](C)C(=O)N[C@@H](Cc1c[nH]c2ccccc12)C(=O)N[C@@H](CC(C)C)C(=O)N[C@H](C(=O)N[C@@H](CCCCN)C(=O)NCC(=O)N[C@@H](CCCNC(=N)N)C(=O)NCC(=O)NCC(=O)N[C@@H](CCCCN)C(=O)NCC(=O)N[C@@H](CCCNC(=N)N)C(=O)N[C@H]1CSSC[C@@H](C(=O)N[C@@H](Cc2ccccc2)C(=O)N2CCC[C@H]2C(=O)O)NC(=O)[C@H]([C@@H](C)CC)NC(=O)[C@@H]2CCCN2C(=O)[C@@H]2CCCN2C(=O)[C@H]([C@@H](C)CC)NC(=O)[C@H](CO)NC(=O)[C@H](CCCCN)NC(=O)[C@H]([C@@H](C)O)NC1=O)C(C)C [D-GLP-1-BT1] | significantly reduced the blood glucose levels at 30, 60, and 120 minutes after oral glucose loading and the AUC | 145.1 | 59.5 | 101.4 | 73.9 | 48.1 | 138.4 | 59.5 | 132.1 | 144.2 | 171.1 |  | 
2 | CC[C@H](C)[C@H](NC(=O)[C@H](Cc1ccccc1)NC(=O)[C@H](CCC(=O)O)NC(=O)[C@H](CCCCN)NC(=O)[C@H](C)NC(=O)[C@H](C)NC(=O)[C@H](CCC(N)=O)NC(=O)CNC(=O)[C@H](CCC(=O)O)NC(=O)[C@H](CC(C)C)NC(=O)[C@H](Cc1ccc(O)cc1)NC(=O)[C@H](CO)NC(=O)[C@H](CO)NC(=O)[C@@H](NC(=O)[C@H](CC(=O)O)NC(=O)[C@H](CO)NC(=O)[C@@H](NC(=O)[C@H](Cc1ccccc1)NC(=O)[C@@H](NC(=O)CNC(=O)[C@H](CCC(=O)O)NC(=O)[C@H](C)NC(=O)[C@H](Cc1c[nH]cn1)NC(=O)CNC(=O)CNC(=O)[C@@H](NC(=O)[C@@H]1CCCN1C(=O)[C@@H](NC(=O)CN)[C@@H](C)CC)[C@@H](C)CC)[C@@H](C)O)[C@@H](C)O)C(C)C)C(=O)N[C@@H](C)C(=O)N[C@@H](Cc1c[nH]c2ccccc12)C(=O)N[C@@H](CC(C)C)C(=O)N[C@H](C(=O)N[C@@H](CCCCN)C(=O)NCC(=O)N[C@@H](CCCNC(=N)N)C(=O)NCC(=O)NCC(=O)N[C@@H](CCCCN)C(=O)NCC(=O)N[C@@H](CO)C(=O)N[C@H]1CSSC[C@@H](C(=O)N[C@@H](Cc2ccc(O)cc2)C(=O)NCC(=O)O)NC(=O)[C@H](CCC(N)=O)NC(=O)[C@@H]2CCCN2C(=O)[C@@H]2CCCN2C(=O)[C@H]([C@@H](C)CC)NC(=O)[C@H](CO)NC(=O)[C@H](Cc2ccc(O)cc2)NC(=O)[C@H]([C@@H](C)O)NC1=O)C(C)C [D-GLP-1-CH4] |  | 170.8 | 72.1 | 124.2 | 82.7 | 57.4 | 123.2 | 72.5 | 110.2 | 125.2 | 158.8 |  | 
3 | CC[C@H](C)[C@H](NC(=O)[C@H](Cc1ccccc1)NC(=O)[C@H](CCC(=O)O)NC(=O)[C@H](CCCCN)NC(=O)[C@H](C)NC(=O)[C@H](C)NC(=O)[C@H](CCC(N)=O)NC(=O)CNC(=O)[C@H](CCC(=O)O)NC(=O)[C@H](CC(C)C)NC(=O)[C@H](Cc1ccc(O)cc1)NC(=O)[C@H](CO)NC(=O)[C@H](CO)NC(=O)[C@@H](NC(=O)[C@H](CC(=O)O)NC(=O)[C@H](CO)NC(=O)[C@@H](NC(=O)[C@H](Cc1ccccc1)NC(=O)[C@@H](NC(=O)CNC(=O)[C@H](CCC(=O)O)NC(=O)[C@H](C)NC(=O)[C@H](Cc1c[nH]cn1)NC(=O)CNC(=O)CNC(=O)[C@@H](NC(=O)[C@@H]1CCCN1C(=O)[C@@H](NC(=O)CN)[C@@H](C)CC)[C@@H](C)CC)[C@@H](C)O)[C@@H](C)O)C(C)C)C(=O)N[C@@H](C)C(=O)N[C@@H](Cc1c[nH]c2ccccc12)C(=O)N[C@@H](CC(C)C)C(=O)N[C@H](C(=O)N[C@@H](CCCCN)C(=O)NCC(=O)N[C@@H](CCCNC(=N)N)C(=O)NCC(=O)NCC(=O)N[C@@H](CCCCN)C(=O)NCC(=O)N[C@@H](Cc1ccccc1)C(=O)N[C@H]1CSSC[C@@H](C(=O)N[C@@H](Cc2ccc(O)cc2)C(=O)NCC(=O)O)NC(=O)[C@H](CCC(N)=O)NC(=O)[C@@H]2CCCN2C(=O)[C@@H]2CCCN2C(=O)[C@H]([C@@H](C)CC)NC(=O)[C@H](CO)NC(=O)[C@H](Cc2ccc(O)cc2)NC(=O)[C@H]([C@@H](C)O)NC1=O)C(C)C [D-GLP-1-CH10] |  | 171.2 | 65.9 | 116.3 | 90.3 | 57.7 | 116.8 | 86.5 | 97.9 | 118.7 | 148.1 | 24.8 | absorbed into the blood circulation and have hypoglycemic activity
